# Measured values published in publication PMC4336329 (PLoS ONE, 2015).
# Screen size: about 310,000 compounds; about 14,000 (4.5%) showed an effect of 50% or more. Effects have a minus sign here. The list shows a part of the results.
# Target: human ether-à-go-go-related gene (hERG) potassium channel (human, UniProt Q12809)
# Assay: primary screen, population patch clamp on CHO cells stably expressing hERG
# 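Also: peak tail current of the secondary pulse compared with the same well before compound.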
# human ether-à-go-go-related gene (hERG) potassium channel, sequence (Q12809 whole entry, looked up): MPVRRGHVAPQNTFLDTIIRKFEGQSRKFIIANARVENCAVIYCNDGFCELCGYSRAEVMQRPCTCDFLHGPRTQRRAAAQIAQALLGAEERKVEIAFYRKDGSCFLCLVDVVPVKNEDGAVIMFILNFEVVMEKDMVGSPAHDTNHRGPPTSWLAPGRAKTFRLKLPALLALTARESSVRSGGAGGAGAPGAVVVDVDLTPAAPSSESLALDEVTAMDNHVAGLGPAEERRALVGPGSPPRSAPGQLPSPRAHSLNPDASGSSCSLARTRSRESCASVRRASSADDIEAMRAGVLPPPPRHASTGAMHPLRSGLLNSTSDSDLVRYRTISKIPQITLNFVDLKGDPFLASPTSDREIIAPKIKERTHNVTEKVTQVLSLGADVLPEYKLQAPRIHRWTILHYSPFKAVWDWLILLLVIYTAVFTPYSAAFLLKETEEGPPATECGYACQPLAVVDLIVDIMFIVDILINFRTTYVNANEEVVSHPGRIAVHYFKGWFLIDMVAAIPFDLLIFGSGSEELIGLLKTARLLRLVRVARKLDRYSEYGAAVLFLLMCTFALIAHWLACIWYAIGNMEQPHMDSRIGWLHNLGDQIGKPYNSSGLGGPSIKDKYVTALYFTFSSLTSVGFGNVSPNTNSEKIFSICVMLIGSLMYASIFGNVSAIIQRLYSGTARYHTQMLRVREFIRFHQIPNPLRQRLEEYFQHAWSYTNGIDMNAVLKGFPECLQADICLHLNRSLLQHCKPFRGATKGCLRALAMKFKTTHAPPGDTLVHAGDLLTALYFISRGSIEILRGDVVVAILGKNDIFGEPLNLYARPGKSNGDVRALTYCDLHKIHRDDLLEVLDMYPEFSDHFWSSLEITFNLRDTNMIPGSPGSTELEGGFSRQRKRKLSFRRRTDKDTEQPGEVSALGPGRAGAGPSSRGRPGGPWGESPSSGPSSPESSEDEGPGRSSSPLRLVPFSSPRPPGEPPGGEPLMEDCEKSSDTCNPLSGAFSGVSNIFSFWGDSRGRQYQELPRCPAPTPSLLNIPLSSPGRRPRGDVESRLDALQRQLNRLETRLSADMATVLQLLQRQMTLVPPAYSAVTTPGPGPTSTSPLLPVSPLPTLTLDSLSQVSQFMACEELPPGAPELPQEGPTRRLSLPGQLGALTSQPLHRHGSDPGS
row,Compound,"hERG current change (%, negative = inhibition) at 10uM [%]"
1,COC(=O)c1c(NC(=O)COC(=O)Cn2cnc3ccccc32)sc(C)c1C,-0.491
2,Cc1ccccc1OCCOC(=O)c1nc2nccc(C)n2n1,-14.1
3,CCOc1ccc(CCNC(=O)c2ccc(NC3=NC4CS(=O)(=O)CC4S3)cc2)cc1 (stereo not shown),10.9
4,CCC1(C)Cc2ccccc2-c2nc(NCCO)[nH]c(=O)c21 (stereo not shown),5.78
5,Cc1nn(C)c(C)c1S(=O)(=O)N(CC(=O)NCc1cccs1)c1ccc(C(C)C)cc1,9.79
6,COc1ccccc1/C=C/C(=O)OC(C)CN1CCOCC1.Cl (stereo not shown),-4.32
7,COc1ccc2c(c1)cc1n2CCN=C1NN.Cl.O,2.89
8,c1ccc2[nH]c(SCc3cscn3)nc2c1,2.76
9,O=C(CSc1ccc(-c2cccnc2)nn1)Nc1ccc(F)cc1F,-33.1
10,CCOC(=O)C1CCCc2c1[nH]c1c(C(N)=O)cccc21 (stereo not shown),-14.7
11,CCOc1ccc(S(=O)(=O)N2CCOCC2)cc1NC(=O)CSCc1ccc(C)cc1,-53.2
12,COc1ccc(CCc2nnc(NS(C)(=O)=O)s2)cc1,8.96
13,CC(C)C(=O)N1CCN(c2ccc(NC(=O)c3cccs3)cc2)CC1,16.6
14,CN(CC(=O)Nc1cccc(F)c1)C(=O)CCNC(=O)c1ccc(Br)cc1,-20.1
15,CCOC(=O)C1=C(O)/C(=C/c2ccc(CNC(=O)C(=O)Nc3ccc(C)cc3)o2)N=C1C,8.92
16,O=C(Cn1cc(C(F)(F)F)ccc1=O)NC(c1ccccc1)c1ccccc1,5.28
17,Cc1ccc(S(=O)(=O)CC(=O)Nc2nnc(C(C)(C)C)s2)cc1,2.09
18,Cc1ccc(NCc2ccccc2)cc1,11.9
19,CCc1nc2c(c(=O)c3ccccc3n2C)c(=O)n1CCc1ccc(OC)cc1,-74.9
20,CCc1c(C)nc2ncnn2c1N1CCC(C(=O)Nc2cccc(C(C)=O)c2)CC1,-22.6
21,COC(=O)C1CCN(S(=O)(=O)c2cn(C)c(=O)n(C)c2=O)CC1,25.4
22,Cc1cc2cc(CN(Cc3cccs3)C(=S)NCc3ccco3)c(=O)[nH]c2cc1C,-13.9

row,Compound,"hERG current change (%, negative = inhibition) at 10uM [%]"
1,CCN1CCN(C(c2cccs2)C(C)NC(=O)Oc2ccccc2)CC1 (stereo not shown),-38.5
2,O=C(Cn1cc2c(n1)CCCC2)N1CCOCC1,2.86
3,O=C(COc1coc(CN2CCN(c3ccccc3F)CC2)cc1=O)N1CCc2ccccc21,-33.5
4,COc1ccc(-c2[nH]nc3c2C2(C(=O)N(CC(=O)O)c4ccccc42)C(C#N)=C(N)O3)cc1OC (stereo not shown),8.77
5,CC(=O)c1cccc(NC(=O)CC2Oc3ccc(C)cc3NC2=O)c1 (stereo not shown),-0.419
6,O=C(CCN1C(=O)c2ccccc2C1=O)Nc1ccccc1C(=O)N1CCOCC1,-3.17
7,COc1cc(OC)c(C(=O)NCCCn2ccnc2)cc1OC.Cl,13
8,O=C(COC(=O)Cc1ccsc1)NC1CCCCCC1,-12.4
9,CC(C)=CC(=O)Nc1ccc(Cl)cc1,11.8
10,CC(Sc1nc(-c2ccccc2)cc(C(F)(F)F)n1)C(=O)Nc1ccc2c(c1)OCO2 (stereo not shown),10.3
11,COc1ccc(NC(=O)C2=NN(C3CCS(=O)(=O)C3)C(=O)CC2)cn1 (stereo not shown),25.4
12,Cc1ccc(C(=O)NCC(=O)OC(C)C(=O)NC2CCCc3ccccc32)cc1 (stereo not shown),-1.3
13,CC(C(=O)O)N1C(=O)C2C3c4ccccc4C(c4ccccc43)[C@@H]2C1=O (stereo partly shown),24
14,CCCC12CN3CC(C)(CN(C1)C3c1ccc([N+](=O)[O-])o1)C2=O (stereo not shown),-19.6
15,O=C(c1ccccc1)N1N=C(c2ccccc2O)CC1c1ccc(Br)cc1 (stereo not shown),24
16,O=C(O)c1c2c(nc3ccccc13)-c1ccccc1CC2,19.2
17,CCOc1ccccc1C(=O)Nc1ccc2nc(N3CCN(c4ncccn4)CC3)cc(C)c2c1,-8.08
18,O=C(COc1ccc(Cl)cc1)NCc1nnc(SCC(=O)N2CCCc3ccccc32)o1,-13.1
19,O=C(CSCc1ccc(Br)cc1)N1CCCC1,-5.18
20,CCCc1cc(=O)[nH]c(SCc2ccccc2Cl)n1,-12.3
21,COCc1cc(=O)n2[nH]c(N)nc2n1,2.03
22,CCS(=O)(=O)N1CCC(C(=O)N2CCN(c3ccccc3)CC2)CC1,-6.54

row,Compound,"hERG current change (%, negative = inhibition) at 10uM [%]"
1,CCOc1ccc(NC(=O)c2ccccc2O)cc1,-6.55
2,O=C(c1ccccc1F)c1cn(CC(=O)N2CCCC2)c2ccccc12,-3.87
3,COc1ccc(N(CC(=O)NCc2ccccc2)C(=O)Cn2nnc(-c3ccccc3F)n2)cc1OC,-8.85
4,CCSc1nnc(NC(=O)Cc2ccc(OC)c(S(=O)(=O)N3CCOCC3)c2)s1,11.1
5,COc1cc(/C=C/C(=O)OCC(=O)Nc2ccc(C)c(S(=O)(=O)N3CCCCC3)c2)ccc1O,-0.897
6,O=C(NNC(=S)NC(=O)c1ccccc1)c1ccc(O)cc1,24.7
7,O=[N+]([O-])c1cc(N=Nc2ccc3ccccc3c2)ccc1O,12.8
8,CCOc1ccc(N2C(=O)CC(NCCc3c[nH]c4ccccc34)C2=O)cc1 (stereo not shown),1.45
9,Cn1c(=O)c(C(=O)CN2CCN(S(=O)(=O)c3ccccc3)CC2)c(N)n(Cc2ccccc2)c1=O,-18.7
10,O=C(O/N=C(\c1ccccc1)c1ccncc1)c1ccccc1Cl,42.1
11,CC(C)(C)NS(=O)(=O)c1ccc(CCC(=O)Nc2ccc3c(c2)OCCO3)cc1,21.8
12,CC1CC(C)(C)CC2(C1)NC(=O)N(CC(=O)Nc1ccc3[nH]c(=O)[nH]c3c1)C2=O (stereo not shown),-0.612
13,COc1ccc(N2CC(C(=O)Nc3ccc([N+](=O)[O-])cc3Br)CC2=O)cc1 (stereo not shown),-69
14,CN(C)C(=S)SCC(=O)NCc1ccc(F)cc1,13.2
15,Cc1cc(/C=C2\C(=N)N3N=C(CC(=O)N4CCOCC4)SC3=NC2=O)c(C)n1-c1ccccc1,10.3
16,CN(C(=O)COc1ccc(Cl)cc1Cl)C1(C)CCS(=O)(=O)C1 (stereo not shown),-12.5
17,CCCN(CCC)c1nc2ccccc2nc1C(C#N)C(=O)OCCOC (stereo not shown),-16.6
18,Cc1cc(NC(=O)CCc2ccccc2)c([N+](=O)[O-])cc1C,-12.4
19,O=C(C[n+]1ccccc1)Nc1ccccc1Br.[Cl-],28.1
20,Cc1cccc(NC(c2ccc(C)s2)c2ccc3ccc(C)nc3c2O)n1 (stereo not shown),11.6
21,Cc1ccc([N+](=O)[O-])cc1NCC(=O)NN,-1.25
22,COc1ccc(C2(c3ccc(OC)cc3)NC(=O)N(CC(=O)NCC(F)(F)F)C2=O)cc1,0.0892

row,Compound,"hERG current change (%, negative = inhibition) at 10uM [%]"
1,COCc1cc(C)nc(OCC(=O)N/N=C/c2ccc(-c3cccc([N+](=O)[O-])c3)o2)c1C#N,-0.736
2,CN1CCCC(OC(=O)c2ccccc2Br)C1.Cl (stereo not shown),3.51
3,COc1ccc(C(=O)CSc2nc3c(c(=O)n(C)c(=O)n3C)n2C)cc1,8.5
4,CCOC(=O)Cc1cc(=O)n2[nH]c(C)c(-c3ccc(Cl)cc3)c2n1,3.21
5,Nc1nc2c3ccccc3nc(Cc3ccccc3)n2n1,9.19
6,C/C(=N\NC(=O)CSc1ncccn1)c1ccc2c(c1)OCCO2,-16.3
7,COC(=O)c1cccc(C(=O)N2CCCC(Nc3ccc4c(c3)OCCO4)C2)c1 (stereo not shown),4.75
8,S=C(Nc1ccc(Cl)cc1Cl)NC1CCCCC1,4.77
9,S=c1nc(-c2ccccc2)n(CCN2CCOCC2)c2c1CCCC2,-13.4
10,C=CCc1ccccc1Oc1cc(F)nc(N)n1,14.2
11,CCC(C)NC(=O)c1cc(Sc2nnc(C)s2)nc2ccccc12 (stereo not shown),0.69
12,COc1cccc(/C=N/NC(=O)c2ccc(-c3ccccc3)cc2)c1O,-3.13
13,O=[N+]([O-])c1cnccc1Nc1ccc(F)cc1,-15
14,CC(C)Cc1nc(Nc2ccc(S(=O)(=O)N3CCCC3)cc2)c2nnn(Cc3ccccc3)c2n1,-1.18
15,CCN(CC)S(=O)(=O)c1ccc(-c2nnc(SCc3nnc(-c4ccc(C)cc4)o3)o2)cc1,8.8
16,COc1cc2ccccc2c2c1CCCC2=O,-1.09
17,C=CCN=C(C)C1=C(O)CCC1=O,16.5
18,Cc1csc2nc(CNS(=O)(=O)c3ccc4c(c3)CCCC4)cn12,3.66
19,CC(C)NC(=O)C(c1ccc(F)cc1)N(C(=O)CCC(=O)Nc1ccccn1)C1CCCC1 (stereo not shown),10.7
20,COc1ccc(N(Cc2cc3ccc(C)cc3[nH]c2=O)C(=O)c2ccco2)cc1,14.2
21,CN(C)C(CNC(=O)c1ccc(S(=O)(=O)NCc2ccco2)cc1)c1ccccc1 (stereo not shown),19
22,CCn1c(SCc2ccc(C)cc2)nnc1C1CCN(S(=O)(=O)c2ccc(OC)cc2)CC1,-64.5
